Test results: ChEMBL document CHEMBL4888484, “Replenishing the malaria drug discovery pipeline: Screening and hit evaluation of the MMV Hit Generation Library 1 (HGL1) against asexual blood stage Plasmodium falciparum ,using a nano luciferase reporter read-out” (2022)
Hit rate of the full screen: of about 150,000 compounds, about 540 (0.36%) showed an effect of 50% or more. The list shows a part of the results.

tested on: Plasmodium falciparum; test: Primary screen in NF54 nanoGlo assay, in single point, at 2uM, 72h; a lower Z score goes with more inhibition; format: functional, Erythrocyte; conditions: timepoint 72 hour

Compound | % Inhibition [%] | Z score
COCC(O)CNC(c1ccc(OC)cc1F)C(C)C (stereo not drawn) | 10 | -1.29
COc1ccc(CCC(=O)N2CCC[C@@H]2C(=O)NCCc2csc(C)n2)cc1 | -5 | 0.66
Cc1cc(-c2noc(COC(C)(C)C(F)(F)F)n2)cc2nc[nH]c12 | -13 | 1.19
Cc1cccc(CC(=O)N2C3CCC2Cn2c(n[nH]c2=O)C3)c1 (stereo not drawn) | 4 | -0.52
Cn1cnnc1NC(=O)C1(Cc2cccc(F)c2)CCCCC1 | -2 | 0.42
COc1cccc(CN2C[C@@H](C(=O)NCc3cccnc3)CC2=O)c1 | -7 | 0.79
CN=C(NCCC1CC1)NC1CCCC1 | -3 | 0.29
Cc1ccccc1Cn1nc(CC(N)=O)nc1CCc1cnccn1 | -14 | 1.72
CC1CN(C(=O)C2CCOCC2)CCC1c1ccccc1 (stereo not drawn) | 4 | -0.42
Cc1[nH][nH]c(=O)c1[C@H](CC(N)=O)c1ccc2ncccc2c1 | -6 | 0.82
O=C([C@@H]1CN(c2ncnc3[nH]ccc23)CCN1)N1CCCC1 | 12 | -1.11
CCCCCN1CC(=O)N[C@@H]1c1ccc(C)cn1 | -7 | 0.77
CCc1cc(C(=O)N2CC(=O)N(CCC(=O)OC)C[C@H](OCc3cccc(OC)c3)C2)n(C)n1 | -4 | 0.75
Cc1ccc2c(c1)CN(C(=O)Cc1c(C)n[nH]c1C)C(C)(C)C2 | -6 | 1.04
CCc1nnc2n1CCN(C(=O)[C@@H]1COc3ccccc3O1)C2 | -8 | 1.37
Cc1nc(N2CCCCC2)n(CCN2CCOCC2)c(=O)c1C | 6 | -0.62
COc1ccc(C(=O)N2c3cc(CNC(=O)c4ccc(C)cc4)ccc3C[C@@H]2C)cc1 | 18 | -2.09
CCN1C[C@@H](Nc2ncnc3ccc(F)cc23)CC1=O | -6 | 1.24
O=C(CCc1nnc2ccc(N3CCC4(CC3)OCCO4)nn12)Nc1ccccn1 | -18 | 2.42
COc1ccc(-c2ccccc2NC(=O)N2C[C@@H]3CC[C@H](C2)C(=O)N3)cc1 | 2 | -0.15
Cc1cnn(Cc2nccn2C(F)F)c1 | 3 | -0.36
CC[C@H](C)Cc1nc(Cc2c(C)noc2C)n(CCO)n1 | -9 | 0.92
Cc1csc([C@H](C)NC(=O)NCC2(OCCO)CCOCC2)n1 | -2 | 0.26
O=C(Nc1ccc(OC(F)F)cn1)N1CCN2C(=O)OCC[C@H]2C1 | 7 | -1.36
